# Experimental data as given in PubChem BioAssay AID360 (National Center for Advancing Translational Sciences (NCATS), 2006).
# In all, about 48,000 compounds went through this assay and about 550 (1.1%) were called active. Roughly 4% stayed inconclusive and do not appear here. Rule as the data show it: active = potency below about 15 µM; inconclusive = mostly about 16 µM to 33 µM; inactive = weaker than that. The list shows a part of the results.
# Target: Lysosomal acid glucosylceramidase (Homo sapiens) (UniProt P04062)
# Assay: Glucocerebrosidase;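 also: the screen sought inhibitors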
# Settings: purified enzyme, resorufin glucoside fluorescence (screen aimed at inhibitors), 20 min; series mostly up to 77 µM
# In short: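 Compounds titrated against 0.2 nM normal enzyme, 30 uM resorufin beta-D-glucopyranoside substrate, citrate/phosphate buffer with taurocholate and tween-20, pH 5.9. Reaction ran 20 min at room temperature; fluorescence (Ex 548/Em 600) gave AC50.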
# Potency is read from the fitted curve at half-maximal effect.
# UniProt P04062, sequence (P04062 whole entry, looked up): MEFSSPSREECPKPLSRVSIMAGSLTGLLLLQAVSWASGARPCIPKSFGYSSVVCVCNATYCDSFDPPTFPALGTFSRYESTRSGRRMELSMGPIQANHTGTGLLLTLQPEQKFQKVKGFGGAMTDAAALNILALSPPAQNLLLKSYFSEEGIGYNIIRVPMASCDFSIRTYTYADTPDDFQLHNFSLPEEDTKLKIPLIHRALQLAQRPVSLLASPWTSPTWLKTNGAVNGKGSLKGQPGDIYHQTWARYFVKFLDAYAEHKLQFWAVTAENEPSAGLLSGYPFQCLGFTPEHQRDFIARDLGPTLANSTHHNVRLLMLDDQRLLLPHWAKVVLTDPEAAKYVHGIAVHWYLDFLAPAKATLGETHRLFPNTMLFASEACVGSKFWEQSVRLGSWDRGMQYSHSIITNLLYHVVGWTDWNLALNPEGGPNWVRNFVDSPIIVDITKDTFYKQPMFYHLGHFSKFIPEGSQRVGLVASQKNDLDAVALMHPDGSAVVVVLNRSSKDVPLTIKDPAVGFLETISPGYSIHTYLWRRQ
row,Compound,Potency
1,CCCN1C2=C(C(=O)CCC2)C(c2ccc(O)c(Br)c2)C2=C1CCCC2=O,inactive: > 76.9 µM
2,COc1ccc(CNC(=O)C2CCN(S(=O)(=O)N3CCOCC3)CC2)cc1,inactive: > 76.9 µM
3,CCc1cc2c(=O)c(-c3nc4ccccc4n3C)c(C)oc2c(CN2CCN(C)CC2)c1O,inactive: > 76.9 µM
4,COc1cc(C(=O)N2CCN(C(=O)C(Cc3cc(C)ccc3C)NC(C)=O)CC2)cc(OC)c1OC (stereo unspecified),inactive: > 76.9 µM
5,Cc1cc(S(=O)(=O)N2CCN(c3c(C)cccc3C)CC2)ccc1F,inactive: > 76.9 µM
6,Cc1cc(S(=O)(=O)N2CC(=O)N(CCc3ccccc3)C(=O)C2)ccc1F,inactive: > 76.9 µM
7,O=C(CN(CCc1ccccc1)C(=O)CNS(=O)(=O)c1ccccc1)NCc1ccco1,inactive: > 76.9 µM
8,S=c1[nH]nc(-c2ccccc2Cl)n1CC1CCCO1 (stereo unspecified),inactive: > 76.9 µM
9,O=C1NCCN1C(=O)N(c1ccccc1)c1ccccc1,inactive: > 76.9 µM
10,CCOc1cccc2cc(-c3cn4cc(C)ccc4n3)c(=O)oc12,inactive: > 76.9 µM
11,Cc1cccc(CS(=O)(=O)Cc2ccc(C(=O)NCc3cccnc3)o2)c1,inactive: > 76.9 µM
12,CC(C)[C@H](NC(=O)NCCc1ccc(Cl)cc1)C(=O)O,inactive: > 76.9 µM
13,O=C(CSc1nc2ccccc2c(=O)n1Cc1ccco1)c1ccc(F)cc1,inactive: > 76.9 µM
14,COc1ccccc1-c1nc(SCc2ccccn2)n[nH]1,inactive: > 76.9 µM
15,COCc1c(C(=O)OCC(=O)c2c(N)n(CC(C)C)c(=O)n(C)c2=O)oc2ccccc12,inactive: > 76.9 µM
16,COc1ccc(C)cc1NC(=O)CSc1nnc(COc2ccccc2)n1Cc1ccco1,inactive: > 76.9 µM
17,Cc1ccc(CNC(=O)CCS(=O)(=O)c2ccc(Br)s2)o1,inactive: > 76.9 µM
18,Cc1ccc(NC(=O)c2ocnc2C)cc1Cl,inactive: > 76.9 µM
19,O=S(=O)(Nc1nc2ccccc2nc1NCCO)c1cccc(Cl)c1,inactive: > 76.9 µM
20,COc1ccc2c(c1OC)C(=O)N(c1nccs1)C2,inactive
21,Cc1ccccc1CN1CCNC1=O,inactive: > 76.9 µM
22,O=C(Nc1cccc(Cl)c1)c1cnn2cccnc12,inactive: > 76.9 µM
23,COc1ccc(OCC(O)COc2ccc(OC)cc2)cc1,inactive: > 76.9 µM

row,Compound,Potency
1,COc1cc2c(cc1OC)C(c1ccncc1)CC(=O)N2 (stereo unspecified),inactive: > 76.9 µM
2,O=C(CSCCO)Nc1cccc2ccccc12,inactive: > 76.9 µM
3,CCc1c(C)[nH]c2ccc(C)cc2c1=O,inactive: > 76.9 µM
4,Cc1c(C)c2ccc(OCC(=O)N(C)C)c(C)c2oc1=O,inactive: > 76.9 µM
5,O=C(Nc1ccc(Cl)cc1C(=O)NCc1cccnc1)c1ccco1,inactive: > 76.9 µM
6,CC1=NC(C(F)(F)F)(C(F)(F)F)C(C#N)=C(C)N1,inactive: > 76.9 µM
7,COc1cc(S(=O)(=O)NCCc2ccc3c(c2)OCO3)ccc1-n1cnnn1,inactive: > 76.9 µM
8,O=C1CSC(c2cccs2)N1c1ccccc1 (stereo unspecified),inactive: > 76.9 µM
9,COc1ccc(Cl)cc1Nc1nc(C)cc(=O)[nH]1,inactive
10,Cc1cccc(C(=O)NC2CC(C)(C)NC(C)(C)C2)c1,inactive: > 76.9 µM
11,Cc1ccc(NCc2nnc(SCC(=O)N(Cc3ccccc3)C(C)(C)C)o2)c(C)c1,inactive: > 76.9 µM
12,Cc1ccc(C)c(Cn2c(=O)n(CCC(=O)NCc3ccco3)c(=O)c3ccccc32)c1,inactive: > 76.9 µM
13,CN(C)S(=O)(=O)c1ccc(S(=O)(=O)N(Cc2ccccn2)Cc2ccco2)cc1,active: 6.66 µM
14,COc1ccc(-c2nc(C#N)c(N3CC(C)OC(C)C3)o2)cc1OC (stereo unspecified),inactive: > 76.9 µM
15,Nc1cc(=O)[nH]c(SCC(=O)Nc2ccc(Br)cc2)n1,inactive: > 76.9 µM
16,O=C(NC1CCCC1)C(c1cccs1)N(C(=O)c1ccco1)c1ccc2c(c1)OCCO2 (stereo unspecified),inactive: > 76.9 µM
17,O=C(NCCCN1CCOCC1)c1cc(-c2cccs2)on1,inactive: > 76.9 µM
18,CC1CCCc2sc3nc(NCc4ccco4)n4ncnc4c3c21 (stereo unspecified),inactive: > 76.9 µM
19,CCOC(=O)N1CCC(NC(=O)C2CCN(C(=O)N3CC(C)Oc4ccc(C)cc43)CC2)CC1 (stereo unspecified),inactive: > 76.9 µM
20,COc1ccc(S(C)(=O)=O)cc1S(C)(=O)=O,inactive: > 76.9 µM
21,CCC1CCCCN1S(=O)(=O)c1ccc(S(=O)(=O)N2CCN(S(=O)(=O)CC)CC2)cc1 (stereo unspecified),inactive: > 76.9 µM
22,CCOC(=O)CN(C(=O)CSc1nnc(-c2ccc(OC)c(OC)c2)o1)c1ccc(F)cc1,inactive: > 76.9 µM
23,c1ccc(-c2nnc3sc(CN4CCC5(CC4)OCCO5)cn23)cc1,inactive: > 76.9 µM

row,Compound,Potency
1,Cn1c(=O)c2c(nc(CN3CCOCC3)n2CCCO)n(C)c1=O,inactive: > 76.9 µM
2,Cc1ccc2cc(CN(Cc3cccs3)C(=O)c3ccco3)c3nnnn3c2c1C,inactive: > 76.9 µM
3,O=C(c1ccc(C23CC4CC(CC(C4)C2)C3)o1)N1CCOCC1,inactive: > 76.9 µM
4,Cn1c(Cc2ccccc2)nnc1SCC(=O)N1CCN(c2ccccc2)CC1,inactive: > 76.9 µM
5,CCOc1ccc(N2CC(O)Cn3c2nc2c3c(=O)n(CCCc3ccccc3)c(=O)n2C)cc1 (stereo unspecified),inactive: > 76.9 µM
6,CCOC(=O)C(CC)n1cnc2sc3c(c2c1=O)CCC3 (stereo unspecified),inactive: > 76.9 µM
7,O=C(COC(=O)c1ccc(S(=O)(=O)N2CCOCC2)cc1)Nc1nc(-c2ccccc2)cs1,inactive: > 76.9 µM
8,CCOCC(=O)Nc1nc2ccc(OC)cc2s1,inactive: > 76.9 µM
9,CCOC(=O)c1sc(NCC2CCCO2)nc1C (stereo unspecified),inactive: > 76.9 µM
10,CCCS(=O)(=O)N1CCCC(C(=O)NCCCOCC)C1 (stereo unspecified),inactive: > 76.9 µM
11,CCOC(=O)c1c(C)[nH]c(C)c1C(=O)COC(=O)CCOc1ccccc1OC,inactive: > 76.9 µM
12,Brc1ccc(-c2nc(-c3cccnc3)no2)o1,inactive: > 76.9 µM
13,C=C(C)Cn1c(CCNC(=O)CCC)nc2ccccc21,inactive: > 76.9 µM
14,COc1ccc(-n2c(SCC(=O)Nc3ccc4c(c3)OCO4)nc3ccccc3c2=O)cc1,inactive: > 76.9 µM
15,Cc1cc(=O)n2nc(N3CCCC(C(=O)NCCC4=CCCCC4)C3)sc2n1 (stereo unspecified),inactive: > 76.9 µM
16,Cc1cc(NC(=O)CSc2nnc(COc3cccc(C)c3C)n2C)no1,inactive: > 76.9 µM
17,O=C(CN1CCN(CCC(=O)Nc2ccccc2F)CC1)Nc1ccc(F)cc1,inactive: > 76.9 µM
18,c1ccc(-c2cnc(CSc3ncnc4sccc34)o2)cc1,inactive: > 76.9 µM
19,CNC(=O)NCCN1CCCC1=O,inactive: > 76.9 µM
20,CCOC(=O)N1CCN(C(=O)CSc2nnc(-c3cc(OC)cc(OC)c3)o2)CC1,inactive: > 76.9 µM
21,O=C(Nc1ccc2nn(-c3ccccc3)nc2c1)c1cccs1,inactive: > 15.4 µM
22,CC1CCCN(S(=O)(=O)c2cccc(-c3cn4cccnc4n3)c2)C1 (stereo unspecified),inactive: > 76.9 µM
23,CC(C)(C)NCC(O)COc1ccccc1C(C)(C)C (stereo unspecified),inactive: > 76.9 µM

row,Compound,Potency
1,CC(=O)Nc1ccc(SCC(=O)c2cc(C)n(Cc3cccs3)c2C)cc1,inactive: > 76.9 µM
2,O=S(=O)(c1ccc2nc(-c3ccco3)c(-c3ccco3)nc2c1)N1CCOCC1,inactive: > 76.9 µM
3,COCCCn1c(Cc2csc(Nc3cccc(Cl)c3)n2)nnc1SCC(=O)OC,inactive: > 76.9 µM
4,CCS(=O)(=O)N1CCCC(C(=O)NCCN(C)Cc2ccccc2)C1 (stereo unspecified),inactive: > 76.9 µM
5,Cc1cc(NC(=O)CSc2nnc(Cc3ccccc3)o2)no1,inactive: > 76.9 µM
6,Cc1noc(/C=C/N(C)C)c1S(=O)(=O)NC1CCCCC1,inactive: > 76.9 µM
7,Cn1c(SCC(=O)N2CCCc3ccccc32)nnc1-c1cccs1,inactive: > 76.9 µM
8,CC(C)(C)OC(=O)N1CCC(c2c(C(=O)O)cnn2-c2ccc(Cl)cc2)CC1,inactive: > 76.9 µM
9,COc1cc(OC)c(S(=O)(=O)N2CCCCC2)cc1S(=O)(=O)N1CCCCC1,inactive: > 76.9 µM
10,Cc1noc(C)c1C(=O)Nc1nnc(-c2ccccc2)s1,inactive: > 76.9 µM
11,CC(=O)Nc1ccc(OC(=O)C(CCS(C)(=O)=O)N2C(=O)c3ccccc3C2=O)cc1 (stereo unspecified),inactive: > 76.9 µM
12,CCn1c(SCC(=O)Nc2cc(C)on2)nc2sc3c(c2c1=O)CCCC3,inactive: > 76.9 µM
13,Nc1nc(-c2ccco2)nn1C(=O)c1cccnc1,inactive: > 76.9 µM
14,Cn1ncc(Br)c1C(=O)Nc1ccc(Cl)cn1,inactive: > 76.9 µM
15,CCCc1ccc(S(=O)(=O)NCCc2ccncc2)cc1,active: 7.13 µM
16,CCn1c(SCC(=O)NCCc2ccc(OC)c(OC)c2)nc2c1c(=O)n(C)c(=O)n2C,inactive: > 76.9 µM
17,COc1ccc(OCC(=O)N2CCN(C(=O)c3cccs3)CC2)cc1,inactive: > 76.9 µM
18,CCOC(=O)NCc1ccc2c(c1)OCO2,inactive: > 76.9 µM
19,O=C(NC1CCCCC1)C1CCCN(c2nnnn2-c2ccccc2)C1 (stereo unspecified),inactive: > 76.9 µM
20,COc1ccc(OC)c(C(c2nnnn2CCc2ccccc2)N2CCN(c3ccccc3)CC2)c1 (stereo unspecified),inactive: > 76.9 µM
21,Cc1cc(OCc2nn[nH]n2)c2c(C)c(Cc3ccccc3)c(=O)oc2c1,inactive
22,Cc1cccc2cc(C(c3nnnn3CC3CCCO3)N3CCOCC3)c(=O)[nH]c12 (stereo unspecified),inactive: > 76.9 µM
